Measured values taken from PubChem BioAssay (Tox21).
Where “and” joins values, the source holds several entries; their conditions need not be identical. Equal entries are not always repeated. Inconclusive results, whose numbers are uncertain, are shown with a selection of clear calls. Where the call is inconclusive, the potency comes from a doubtful curve fit. Calls of active or inactive are those of the source. Unless noted, calls come from the whole dose curve; as a rule, active = well fitted curve in the direction sought with a large enough effect in the repeat runs; inconclusive = weak or mixed curves; inactive = no such curve, though single readings can be large; an effect the other way counts as inactive or inconclusive.

Assays:
[1] = qHTS assay to identify small molecule antagonists of the retinoid acid receptor (RAR) signaling pathway - cell viability counter screen (AID 1159551); note: nearly all actives have a fitted effect of over 35% in size
Procedure, shortened: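 C3RL4 RARE-luciferase line; cpds + retinol 1 uM final, 6 h, 37 C/5% CO2; CellTiter-Glo ATP luminescence, 30 min RT.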

[2] = qHTS assay to identify small molecule agonists of the retinoic acid receptor (RAR) signaling pathway (AID 1159553); conditions: C3RL4 RARE luciferase reporter, agonist, 6 h; activation: at 73.3 µM (top of the series) unless noted; for activation: % is set by controls: 0 for no effect and ±100 for the full control effect
Procedure, shortened: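 RARE-luc C3RL4 cells; overnight attachment 37 C/5% CO2; compound (DMSO) 6 hr; luciferase reagent, 30 min RT; luminescence read-out.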

[3] = qHTS assay to identify small molecule agonists of the constitutive androstane receptor (CAR) signaling pathway - cell viability counter screen (AID 1224836); note: nearly all actives have a fitted effect of over 45% in size
Procedure, shortened: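 Counter screen multiplexed with the CAR reporter readout: HepG2 cells co-transfected with hCAR and the CYP2B6-2.2kb construct receive a 15-concentration compound series and 0.75 uM PK11195 (final), then CellTiter-Fluor fluorescence is read after 23 h.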

[4] = qHTS assay to identify small molecule antagonists of the estrogen related receptor signaling pathway with the pleiotropic PPARgamma coactivator (PGC) from Tox21 10K library (AID 1224841; call rule not given here; note: actives are mostly falling curves and most rising ones were filed inactive; nearly all actives have a fitted effect of over 50% in size)
Procedure, shortened: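 Luminescence read-out (One-Glo luciferase reagent, 30 min at room temperature) from PGC/ERR cells exposed to DMSO-dissolved test compounds for 18 h at 37 C; cells, 2,000 per well, had been preincubated 6 h before compound transfer.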

[5] = target: Thyrotropin receptor (Homo sapiens) (UniProt P16473); assay: qHTS assay to identify small molecule agonists of the thyroid stimulating hormone receptor (TSHR) signaling pathway (AID 1224843; calls by dose curve; note: nearly all actives have a fitted effect of over 45% in size; for activation: % is set by controls: 0 for no effect and ±100 for the full control effect); conditions: TSHR-HEK293 cells, cAMP HTRF, agonist mode, 30 min; activation: at 92.4 µM (top of the series) unless noted
UniProt P16473, sequence (P16473 whole entry, looked up): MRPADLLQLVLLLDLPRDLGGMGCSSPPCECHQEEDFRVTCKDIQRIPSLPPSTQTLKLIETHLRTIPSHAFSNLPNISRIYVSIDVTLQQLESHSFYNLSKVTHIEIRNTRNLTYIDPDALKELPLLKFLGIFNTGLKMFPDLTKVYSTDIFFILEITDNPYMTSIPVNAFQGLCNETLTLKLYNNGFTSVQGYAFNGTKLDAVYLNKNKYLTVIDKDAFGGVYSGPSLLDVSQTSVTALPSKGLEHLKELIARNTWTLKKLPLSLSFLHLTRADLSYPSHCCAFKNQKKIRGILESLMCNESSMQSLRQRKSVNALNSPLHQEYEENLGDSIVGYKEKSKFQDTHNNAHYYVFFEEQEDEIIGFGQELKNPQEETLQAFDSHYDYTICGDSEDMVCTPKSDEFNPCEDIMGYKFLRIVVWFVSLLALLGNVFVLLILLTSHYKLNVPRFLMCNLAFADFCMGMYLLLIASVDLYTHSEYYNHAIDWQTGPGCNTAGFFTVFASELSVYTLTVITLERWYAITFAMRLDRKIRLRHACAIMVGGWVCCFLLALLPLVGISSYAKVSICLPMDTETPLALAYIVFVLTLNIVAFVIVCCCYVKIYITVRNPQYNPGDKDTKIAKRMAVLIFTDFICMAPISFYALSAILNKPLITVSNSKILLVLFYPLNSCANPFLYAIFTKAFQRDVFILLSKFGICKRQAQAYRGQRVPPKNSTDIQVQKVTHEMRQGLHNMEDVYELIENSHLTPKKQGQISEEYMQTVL
Procedure, shortened: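 HEK293/TSHR, 800 cells/well; cpd 30 min RT; add cAMP-d2 + anti-cAMP-cryptate, 1 h RT; fluorescence read on plate reader. 15-pt titration, n=3.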

[6] = qHTS assay to identify small molecule antagonists of the constitutive androstane receptor (CAR) signaling pathway - cell viability counter screen (AID 1224837); note: nearly all actives have a fitted effect of over 45% in size
Procedure, shortened: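 Read-out: CellTiter-Fluor fluorescence after 23 hr at 37 C/5% CO2. Cells: HepG2 double-stable for hCAR and CYP2B6-2.2kb. Compounds tested at 15 concentrations in the presence of CITCO, final concentration 50 nM.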

[7] = target: Nuclear receptor subfamily 1 group I member 3 (Homo sapiens) (UniProt Q14994); assay: qHTS assay to identify small molecule antagonists of the constitutive androstane receptor (CAR) signaling pathway (AID 1224838);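 note: HepG2 cells stably expressing hCAR with CYP2B6 luciferase reporter stimulated by CITCO; nearly all actives have a fitted effect of over 40% in size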
UniProt Q14994, sequence (Q14994 whole entry, looked up): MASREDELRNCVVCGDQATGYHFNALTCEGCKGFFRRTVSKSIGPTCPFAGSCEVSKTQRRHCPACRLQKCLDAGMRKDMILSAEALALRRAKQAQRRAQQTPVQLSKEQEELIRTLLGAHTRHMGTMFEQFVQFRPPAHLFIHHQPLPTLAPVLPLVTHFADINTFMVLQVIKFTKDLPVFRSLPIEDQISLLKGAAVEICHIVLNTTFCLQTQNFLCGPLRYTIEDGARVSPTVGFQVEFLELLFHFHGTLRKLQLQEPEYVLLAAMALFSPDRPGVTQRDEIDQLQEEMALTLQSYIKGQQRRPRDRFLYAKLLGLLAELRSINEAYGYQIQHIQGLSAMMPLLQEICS
Procedure, shortened: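 Read-out: ONE-Glo luciferase luminescence after 30 min at room temperature. HepG2-CYP2B6-hCAR double-stable cells, compounds in 15-point titration plus 50 nM CITCO final, 24 h at 37 C/5% CO2.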

[8] = qHTS assay to identify small molecule antagonists of the estrogen related receptor signaling pathway with the pleiotropic PPARgamma coactivator (PGC) from Tox21 10K library - cell viability counter screen (AID 1224840; active = well fitted cell-killing curve with a large enough effect in the repeat runs, not every such curve was filed as active; inconclusive = weak or mixed curves, or effect the other way; inactive = no such curve, though single readings can be large or run the other way; note: nearly all actives have a fitted effect of over 40% in size)
Procedure, shortened: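 Fluorescence read-out of CellTiter-Fluor viability reagent, added after cells had been exposed to compound in DMSO for 17.5 h at 37 C; 30 min development at 37 C/5% CO2. Cells: PGC/ERR line, 2,000/well.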

[9] = qHTS assay to identify small molecule agonists of the hypoxia (HIF-1) signaling pathway - cell viability counter screen (AID 1224844; calls by dose curve; note: nearly all actives have a fitted effect of over 50% in size)
Procedure, shortened: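 CellTiter-Glo luminescence read-out, 30 min RT, taken in the same wells as the beta-lactamase HRE reporter assay; HRE-bla ME-180 cells, 0.5% dialyzed FBS, 17 hr compound treatment at 37C, 5% CO2.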

[10] = target: Luciferin 4-monooxygenase (Photinus pyralis) (UniProt P08659); assay: qHTS assay to identify small molecule inhibitors of firefly luciferase (AID 1224835); note: nearly all actives have a fitted effect of over 25% in size
UniProt P08659, sequence (P08659 whole entry, looked up): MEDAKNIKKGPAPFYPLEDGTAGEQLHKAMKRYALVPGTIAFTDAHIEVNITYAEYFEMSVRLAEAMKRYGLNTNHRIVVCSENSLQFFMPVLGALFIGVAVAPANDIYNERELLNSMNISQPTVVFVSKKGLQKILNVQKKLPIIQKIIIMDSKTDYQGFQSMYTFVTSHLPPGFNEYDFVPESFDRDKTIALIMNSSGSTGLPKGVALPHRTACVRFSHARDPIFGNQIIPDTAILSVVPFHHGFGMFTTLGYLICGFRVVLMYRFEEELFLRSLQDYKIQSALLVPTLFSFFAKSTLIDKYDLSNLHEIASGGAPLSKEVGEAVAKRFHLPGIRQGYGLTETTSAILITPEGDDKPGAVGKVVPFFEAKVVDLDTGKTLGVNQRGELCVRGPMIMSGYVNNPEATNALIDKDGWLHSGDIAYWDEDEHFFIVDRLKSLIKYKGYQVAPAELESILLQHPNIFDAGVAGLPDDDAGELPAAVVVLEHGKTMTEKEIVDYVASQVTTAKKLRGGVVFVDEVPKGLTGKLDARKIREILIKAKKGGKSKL
Procedure, shortened: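 Biochemical qHTS: compounds run as interplate titrations against purified firefly enzyme, with D-luciferin and ATP each at its KM concentration. Light output recorded by CCD imaging.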

[11] = qHTS assay to identify small molecule antagonists of the estrogen related receptor (ERR) signaling pathway from Tox21 library - cell viability counter screen (AID 1224834); note: nearly all actives have a fitted effect of over 30% in size
Procedure, shortened: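 Multiplexed viability counter screen in ERR cells: 17.5 h compound exposure at 37 C, CellTiter-Fluor added, 30 min at 37 C/5% CO2, fluorescence read.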

[12] = target: Nuclear receptor subfamily 1 group I member 3 (Homo sapiens) (UniProt Q14994); assay: qHTS assay to identify small molecule agonists of the constitutive androstane receptor (CAR) signaling pathway (AID 1224839); note: nearly all actives have a fitted effect of over 15% in size
Procedure, shortened: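 A 15-concentration quantitative screen uses HepG2 cells co-transfected stably with human CAR and CYP2B6-2.2kb reporter. Treatment lasts 24 h with 0.75 uM PK11195 final present; ONE-Glo luminescence is the signal.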

[13] = qHTS assay to identify small molecule antagonists of the retinoic acid receptor (RAR) signaling pathway (AID 1159552; note: nearly all actives have a fitted effect of over 50% in size)
Procedure, shortened: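 Quantitative HTS in C3RL4 RARE-luciferase reporter cells. Compounds were added with 1 uM (final) retinol; luminescence was read after 6 hr.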
Potency is the fitted concentration of half-maximal effect; tags give direction and shape of the fitted curve or compound fluorescence and quenching.

Cc1cc(O)c(C(C)(C)C)cc1Sc1cc(C(C)(C)C)c(O)cc1C
Potency [1]: active: 61 µM
Potency [2]: inconclusive: 19.3 µM [inhibitor, partial curve]
Potency [3]: active: 48.5 µM
Potency [4]: active: 21.6 µM
Potency [5]: active: 9.67 µM

CCCCCN=C(N)N/N=C/c1c[nH]c2ccc(OC)cc12
Potency [1]: active: 29.8 µM
Potency [2]: inconclusive: 29.8 µM [inhibitor]
Potency [6]: active: 18.8 µM
Potency [7]: active: 16.8 µM
Potency [8]: active: 21.1 µM
Potency [4]: inconclusive: 26.6 µM [falling, partial curve, poor fit]
activation [5]: inconclusive: -20.6% [at 42.5 µM]
Potency [9]: inconclusive: 26.8 µM [cytotoxic, single point]

CCCCCC(=O)O[C@]1(C(C)=O)CC[C@H]2[C@@H]3CCC4=CC(=O)CC[C@]4(C)[C@H]3CC[C@@]21C
Potency [1]: inconclusive: 76.4 µM [cytotoxic, partial curve, poor fit]
Potency [6]: inconclusive: 33.5 µM [cytotoxic]
Potency [7]: inconclusive: 68.1 µM [inhibitor, single point]
Potency [8]: active: 54.1 µM and inconclusive: 29.8 µM [cytotoxic, single point]
Potency [5]: inconclusive: 7.64 µM [inhibitor, full curve]
activation [5]: inconclusive: -15.3% [at 42.5 µM]
Potency [9]: active: 38.6 µM and inconclusive: 26.8 µM [cytotoxic, single point]

CN(C)c1ccc(SC#N)cc1
Potency [1]: inconclusive: 68.6 µM [cytotoxic, partial curve, poor fit]
Potency [10]: inconclusive: 39.9 µM [inhibitor, partial curve]
Potency [6]: inconclusive: 24.3 µM [cytotoxic, partial curve]
Potency [7]: active: 27.3 µM
activation [5]: inconclusive: -41.4%

CCCCC(CC)COC(=O)CC(C(=O)OCC(CC)CCCC)S(=O)(=O)O (configuration not stated)
Potency [1]: inconclusive: 29.5 µM [cytotoxic, partial curve, poor fit] and inconclusive: 77 µM [cytotoxic, partial curve, poor fit]
Potency [11]: inconclusive: 52.4 µM [cytotoxic, partial curve] and inconclusive: 24.3 µM [cytotoxic, full curve, poor fit]
Potency [10]: inconclusive: 86 µM [inhibitor]
Potency [3]: inconclusive: 58.8 µM [cytotoxic, partial curve, poor fit]

CCCCCCCCOC(=O)c1ccc(O)cc1
Potency [1]: inconclusive: 68.6 µM [cytotoxic, single point]
Potency [11]: inconclusive: 68.4 µM [cytotoxic, single point] and inconclusive: 30.6 µM [cytotoxic, full curve]
Potency [10]: inconclusive: 79.4 µM [inhibitor, single point] and inconclusive: 63.3 µM [inhibitor, partial curve]
Potency [3]: inactive
Potency [12]: inconclusive: 60.9 µM [activator, partial curve] and inconclusive: 61.1 µM [activator, partial curve, poor fit]
Potency [9]: inconclusive: 54.9 µM [cytotoxic, single point]

CCOC(=O)O[C@H](C)OC(=O)c1ccc2c(c1)cc(C(=O)NC1CCN(C(C)C)CC1)n2Cc1cc(-c2ccc(Cl)s2)on1
Potency [13]: active: 12.8 µM
Potency [2]: inconclusive: 36 µM [inhibitor, partial curve]
Potency [11]: active: 28.6 µM
Potency [3]: inconclusive: 64.1 µM [cytotoxic, single point]
Potency [6]: active: 64.1 µM
Potency [8]: active: 22.7 µM
Potency [5]: inconclusive: 5.09 µM [activator, partial curve]

CCc1cccc(C)c1N
Potency [13]: inactive

CS(=O)(=O)CCNCc1ccc(-c2ccc3ncnc(Nc4ccc(OCc5cccc(F)c5)c(Cl)c4)c3c2)o1
Potency [13]: inconclusive: 21.1 µM [inhibitor, partial curve]
Potency [2]: inactive
Potency [3]: inconclusive: 29.8 µM [cytotoxic]
Potency [6]: inconclusive: 29.8 µM [cytotoxic]
Potency [9]: active: 10.7 µM

CC(C)(C)CC(C)(C)c1ccc(OCCOCC[N+](C)(C)Cc2ccccc2)cc1
Potency [13]: active: 43.2 µM and active: 29.8 µM
Potency [2]: inconclusive: 54.4 µM [inhibitor, partial curve] and inconclusive: 29.8 µM [inhibitor, partial curve, poor fit]
Potency [8]: active: 48.5 µM and inconclusive: 13.3 µM [cytotoxic, partial curve, poor fit]
Potency [5]: active: 13.7 µM and active: 11.9 µM

CC(C)c1ccc2sc3ccccc3c(=O)c2c1
Potency [1]: inconclusive: 48.6 µM [cytotoxic]
Potency [5]: inconclusive: 5.45 µM [inhibitor, full curve]

COc1cc([C@@H]2c3cc4c(cc3[C@H](O)[C@H]3COC(=O)[C@H]23)OCO4)cc(OC)c1OC
Potency [13]: inconclusive: 30.6 nM [inhibitor, full curve] and inconclusive: 33.5 nM [inhibitor, full curve]
Potency [2]: inconclusive: 0.0422 µM [inhibitor, full curve]
Potency [3]: inconclusive: 0.075 µM [cytotoxic, full curve]
Potency [6]: inconclusive: 109 nM [cytotoxic, full curve] and inconclusive: 94.4 nM [cytotoxic, full curve]
Potency [7]: active: 48.5 nM and active: 59.6 nM
Potency [8]: inconclusive: 0.0544 µM [cytotoxic]
Potency [5]: inactive
Potency [9]: inconclusive: 0.0601 µM [rising, partial curve]
